Measurements as given in article PMC10611716.
These are yes or no findings as the source states them, for the method shown. In cells and extracts the contact can be indirect. Some entries that bind do so weakly or less than the wild type.

By UniProt entry, the sequences of proteins in these tests, tags left out. Residues count along the entry.
UniProt Q9P0J7: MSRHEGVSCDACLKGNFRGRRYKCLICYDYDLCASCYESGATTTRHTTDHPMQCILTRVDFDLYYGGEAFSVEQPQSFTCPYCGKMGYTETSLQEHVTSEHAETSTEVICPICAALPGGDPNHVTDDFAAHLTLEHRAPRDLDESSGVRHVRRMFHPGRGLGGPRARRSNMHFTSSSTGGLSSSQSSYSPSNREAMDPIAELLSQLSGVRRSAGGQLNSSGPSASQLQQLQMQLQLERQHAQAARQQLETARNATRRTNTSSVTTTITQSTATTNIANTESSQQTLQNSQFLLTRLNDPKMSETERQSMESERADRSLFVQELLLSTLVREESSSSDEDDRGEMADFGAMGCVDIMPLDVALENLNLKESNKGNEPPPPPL
UniProt Q8IWV8: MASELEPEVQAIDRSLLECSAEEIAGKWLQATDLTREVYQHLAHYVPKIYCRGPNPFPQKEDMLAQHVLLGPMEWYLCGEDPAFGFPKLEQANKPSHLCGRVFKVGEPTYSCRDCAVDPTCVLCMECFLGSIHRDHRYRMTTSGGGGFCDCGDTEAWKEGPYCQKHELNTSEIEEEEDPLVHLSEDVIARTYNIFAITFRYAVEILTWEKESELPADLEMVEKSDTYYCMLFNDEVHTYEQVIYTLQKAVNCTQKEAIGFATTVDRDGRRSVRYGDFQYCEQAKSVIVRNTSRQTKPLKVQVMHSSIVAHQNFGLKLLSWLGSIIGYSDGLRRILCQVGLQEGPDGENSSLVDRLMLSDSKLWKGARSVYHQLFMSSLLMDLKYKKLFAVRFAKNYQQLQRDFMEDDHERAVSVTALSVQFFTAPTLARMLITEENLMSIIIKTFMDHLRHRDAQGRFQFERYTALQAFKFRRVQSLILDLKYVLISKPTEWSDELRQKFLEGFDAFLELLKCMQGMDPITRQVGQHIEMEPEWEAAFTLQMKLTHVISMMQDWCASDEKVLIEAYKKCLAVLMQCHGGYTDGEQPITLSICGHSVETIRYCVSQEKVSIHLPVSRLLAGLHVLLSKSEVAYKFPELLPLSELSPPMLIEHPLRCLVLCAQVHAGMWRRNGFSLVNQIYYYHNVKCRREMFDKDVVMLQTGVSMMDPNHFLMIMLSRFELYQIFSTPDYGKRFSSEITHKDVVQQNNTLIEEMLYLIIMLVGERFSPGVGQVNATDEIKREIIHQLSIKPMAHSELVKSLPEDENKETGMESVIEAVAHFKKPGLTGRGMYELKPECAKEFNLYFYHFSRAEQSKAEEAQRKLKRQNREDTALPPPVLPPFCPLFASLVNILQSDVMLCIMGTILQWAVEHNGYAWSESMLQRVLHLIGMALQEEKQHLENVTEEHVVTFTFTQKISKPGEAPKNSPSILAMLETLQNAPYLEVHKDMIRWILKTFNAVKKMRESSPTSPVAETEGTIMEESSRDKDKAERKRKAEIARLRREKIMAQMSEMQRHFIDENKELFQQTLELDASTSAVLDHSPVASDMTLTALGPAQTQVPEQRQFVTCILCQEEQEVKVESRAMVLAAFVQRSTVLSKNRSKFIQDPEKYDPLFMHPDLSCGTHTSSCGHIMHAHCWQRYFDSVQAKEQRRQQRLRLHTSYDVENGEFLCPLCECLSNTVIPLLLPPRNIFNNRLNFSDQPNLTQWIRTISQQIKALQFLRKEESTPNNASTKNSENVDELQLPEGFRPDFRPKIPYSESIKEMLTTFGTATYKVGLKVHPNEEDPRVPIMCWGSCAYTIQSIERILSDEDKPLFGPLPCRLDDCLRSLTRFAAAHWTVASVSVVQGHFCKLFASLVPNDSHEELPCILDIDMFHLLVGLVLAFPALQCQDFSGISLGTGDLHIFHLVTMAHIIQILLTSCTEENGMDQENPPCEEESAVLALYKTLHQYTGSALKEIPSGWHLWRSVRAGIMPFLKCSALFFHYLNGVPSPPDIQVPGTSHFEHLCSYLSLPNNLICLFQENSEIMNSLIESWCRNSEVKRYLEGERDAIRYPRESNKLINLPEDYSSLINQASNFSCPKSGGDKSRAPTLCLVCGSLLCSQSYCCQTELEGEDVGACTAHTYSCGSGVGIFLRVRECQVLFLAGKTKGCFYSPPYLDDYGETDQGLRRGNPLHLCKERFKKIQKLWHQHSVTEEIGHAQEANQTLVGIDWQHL
UniProt A2AN08, residues 1222-1996: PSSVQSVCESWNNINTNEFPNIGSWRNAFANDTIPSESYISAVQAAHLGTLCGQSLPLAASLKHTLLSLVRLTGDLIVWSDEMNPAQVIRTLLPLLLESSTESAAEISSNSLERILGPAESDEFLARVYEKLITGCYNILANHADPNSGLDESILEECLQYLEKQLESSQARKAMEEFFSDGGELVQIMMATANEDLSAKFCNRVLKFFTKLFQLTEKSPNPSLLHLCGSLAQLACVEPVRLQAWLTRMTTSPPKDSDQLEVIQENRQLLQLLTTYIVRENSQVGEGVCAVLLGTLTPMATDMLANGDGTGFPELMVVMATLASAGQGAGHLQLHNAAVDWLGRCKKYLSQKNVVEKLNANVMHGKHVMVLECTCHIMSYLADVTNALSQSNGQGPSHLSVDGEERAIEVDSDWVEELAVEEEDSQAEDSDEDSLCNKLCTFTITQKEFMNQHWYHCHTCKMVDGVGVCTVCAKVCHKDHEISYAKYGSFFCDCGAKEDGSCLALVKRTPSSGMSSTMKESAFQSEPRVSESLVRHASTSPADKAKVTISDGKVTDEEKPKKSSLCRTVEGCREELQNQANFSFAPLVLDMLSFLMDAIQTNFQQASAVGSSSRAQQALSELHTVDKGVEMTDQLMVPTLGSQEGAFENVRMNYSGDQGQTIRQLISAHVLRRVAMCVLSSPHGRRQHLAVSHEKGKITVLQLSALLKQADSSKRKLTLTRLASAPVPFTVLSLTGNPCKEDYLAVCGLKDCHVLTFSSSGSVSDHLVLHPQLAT

Tests used:
[1] = molecular target: T1, FI-UBE2M peptide (XY-UBE2M, Arg/N-degron type 2 control) (human); experiment: pull-down; biotinylated peptides on streptavidin magnetic beads; extract of HeLa cells transiently expressing UBR4-V5 (300-500 ug total protein); binding buffer 20 mM HEPES pH 7.9, 200 mM KCl, 0.05% Tween 20, 10% glycerol; overnight at 4 C; immunoblot; only the target purified
T1 sequence (peptide, biotin on the added C-terminal lysine (K-biotin)): FIKLFSLKQQKK

[2] = molecular target: T2, MY-UBE2M peptide (XY-UBE2M, NatC/E/F-type N-terminus) (human); experiment: as above
T2 sequence (peptide, biotin on the added C-terminal lysine (K-biotin)): MYKLFSLKQQKK

[3] = molecular target: T3, MF-UBE2M peptide (XY-UBE2M, NatC/E/F-type N-terminus) (human); experiment: as above
T3 sequence (peptide, biotin on the added C-terminal lysine (K-biotin)): MFKLFSLKQQKK

[4] = molecular target: T4, non-Nt-acetylated UBE2M peptide (MI-UBE2M), biotinylated 11-mer from the N-terminal sequence of UBE2M (human); experiment: as above
T4 sequence (peptide, biotin on the added C-terminal lysine (K-biotin)): MIKLFSLKQQKK

[5] = molecular target: T5, ML-UBE2M peptide (XY-UBE2M, NatC/E/F-type N-terminus) (human); experiment: as above
T5 sequence (peptide, biotin on the added C-terminal lysine (K-biotin)): MLKLFSLKQQKK

[6] = molecular target: T6, RI-UBE2M peptide (XY-UBE2M, Arg/N-degron type 1 control) (human); experiment: as above
T6 sequence (peptide, biotin on the added C-terminal lysine (K-biotin)): RIKLFSLKQQKK

[7] = molecular target: Arg-starting control peptide R-nsP4 (11-mer Sindbis nsP4-derived peptide) (Sindbis virus); experiment: pull-down; biotinylated UBE2M and X-nsP4 peptides on streptavidin magnetic beads; extract of HAP1 WT cells transiently expressing UBR4-N-FLAG (300-500 ug total protein); binding buffer 20 mM HEPES pH 7.9, 200 mM KCl, 0.05% Tween 20, 10% glycerol; overnight at 4 C; immunoblot; only the target purified
[8] = molecular target: Gly-starting control peptide G-nsP4 (11-mer Sindbis nsP4-derived peptide) (Sindbis virus); experiment: as above
[9] = molecular target: Phe-starting control peptide F-nsP4 (11-mer Sindbis nsP4-derived peptide) (Sindbis virus); experiment: as above

Row | Substance | binding [1] | binding [2] | binding [3] | binding [4] | binding [5] | binding [6] | binding [7] | binding [8] | binding [9]
1 | full-length UBR4-V5 (human) (from UniProt Q5T4S7 1-5183) (enzyme) | binds | binds | binds | binds | binds | binds weakly | – | – | –
2 | KCMF1 (endogenous) (from UniProt Q9P0J7 1-381) (enzyme) | binds | binds | binds | – | binds | binds weakly | – | – | –
3 | UBR2 (endogenous) (from UniProt Q8IWV8 1-1755) (enzyme) | binds | binds | binds | binds | binds | binds weakly | no binding | no binding | binds
4 | UBR4-N-FLAG, N-terminal segment of mouse UBR4 containing the UBR box (from UniProt A2AN08 1222-1996) (domain or fragment) | – | – | – | – | – | – | no binding | no binding | no binding
